In EPA's CvTdb concentration-time database:
Several values for one entry are separate records, joined by “and”; a condition that tells them apart may be missing. Equal values may be shown once. Further values from the same series stand in other lists.

System: rat
Assay: concentration in blood after dosing
Details: dosed: tert-amyl methyl ether, inhalation, duration: 6 hr, F344 (Charles River)

CCC(C)(C)O [tertiary amyl alcohol]
concentration in blood (136 s, 500 ppm, female): 25800 ng/mL | concentration in blood (201 s, 2500 ppm, female): 84500 ng/mL | concentration in blood (238 s, 2500 ppm, female): 52400 ng/mL | concentration in blood (4 min, 500 ppm, female): 26800 ng/mL | concentration in blood (318 s, 2500 ppm, female): 82400 ng/mL | concentration in blood (341 s, 2500 ppm, female): 62400 ng/mL | concentration in blood (358 s, 500 ppm, female): 25500 ng/mL | concentration in blood (0.1437 h, 100 ppm, female): 4030 ng/mL | concentration in blood (0.1613 h, 100 ppm, female): 2750 ng/mL | concentration in blood (0.1771 h, 100 ppm, female): 3260 ng/mL | concentration in blood (0.248 h, 2500 ppm, female): 81100 ng/mL | concentration in blood (0.276 h, 2500 ppm, female): 93300 ng/mL | concentration in blood (0.3497 h, 2500 ppm, female): 61800 ng/mL | concentration in blood (0.4094 h, 500 ppm, female): 24100 ng/mL | concentration in blood (0.4208 h, 500 ppm, female): 17600 ng/mL | concentration in blood (0.4238 h, 500 ppm, female): 33300 ng/mL | concentration in blood (0.435 h, 500 ppm, female): 27000 ng/mL | concentration in blood (0.4361 h, 2500 ppm, female): 90600 ng/mL | concentration in blood (26.5 min, 2500 ppm, female): 73200 ng/mL | concentration in blood (0.4426 h, 2500 ppm, female): 70200 ng/mL | concentration in blood (0.4923 h, 100 ppm, female): 3620 ng/mL | concentration in blood (0.4952 h, 100 ppm, female): 3420 ng/mL | concentration in blood (0.503 h, 100 ppm, female): 2840 ng/mL | concentration in blood (0.8293 h, 2500 ppm, female): 56100 ng/mL | concentration in blood (0.948 h, 2500 ppm, female): 83300 ng/mL | concentration in blood (0.9482 h, 2500 ppm, female): 82600 ng/mL | concentration in blood (0.9605 h, 500 ppm, female): 25100 ng/mL | concentration in blood (0.9676 h, 500 ppm, female): 21100 ng/mL | concentration in blood (0.9688 h, 500 ppm, female): 20400 ng/mL | concentration in blood (0.9757 h, 500 ppm, female): 16400 ng/mL | concentration in blood (0.9845 h, 2500 ppm, female): 68800 ng/mL | concentration in blood (0.9867 h, 2500 ppm, female): 61800 ng/mL and 61600 ng/mL | concentration in blood (1.037 h, 100 ppm, female): 2270 ng/mL | concentration in blood (1.054 h, 100 ppm, female): 2700 ng/mL | concentration in blood (1.825 h, 100 ppm, male): 933 ng/mL and 888 ng/mL | concentration in blood (1.827 h, 100 ppm, male): 418 ng/mL | concentration in blood (1.967 h, 100 ppm, female): 1190 ng/mL | concentration in blood (1.968 h, 100 ppm, female): 1100 ng/mL | concentration in blood (2.022 h, 500 ppm, female): 15400 ng/mL | concentration in blood (2.056 h, 500 ppm, female): 13800 ng/mL and 13600 ng/mL | concentration in blood (2.059 h, 500 ppm, female): 12100 ng/mL | concentration in blood (2.098 h, 2500 ppm, female): 72300 ng/mL | concentration in blood (2.101 h, 2500 ppm, female): 61800 ng/mL | concentration in blood (2.133 h, 2500 ppm, female): 61600 ng/mL | concentration in blood (3.86 h, 100 ppm, male): 628 ng/mL and 576 ng/mL | concentration in blood (3.861 h, 100 ppm, male): 355 ng/mL | concentration in blood (3.862 h, 100 ppm, male): 218 ng/mL | concentration in blood (3.878 h, 100 ppm, male): 1920 ng/mL | concentration in blood (3.88 h, 100 ppm, male): 1500 ng/mL | concentration in blood (3.954 h, 2500 ppm, female): 43800 ng/mL | concentration in blood (3.955 h, 2500 ppm, female): 41700 ng/mL | concentration in blood (3.956 h, 2500 ppm, female): 37900 ng/mL | concentration in blood (3.958 h, 2500 ppm, female): 31800 ng/mL | concentration in blood (3.959 h, 2500 ppm, female): 29300 ng/mL | concentration in blood (3.966 h, 100 ppm, female): 525 ng/mL | concentration in blood (3.968 h, 100 ppm, female): 350 ng/mL | concentration in blood (3.969 h, 100 ppm, female): 259 ng/mL | concentration in blood (3.985 h, 2500 ppm, female): 46300 ng/mL | concentration in blood (4.032 h, 500 ppm, female): 7980 ng/mL | concentration in blood (4.037 h, 500 ppm, female): 5070 ng/mL | concentration in blood (4.04 h, 500 ppm, female): 3650 ng/mL | concentration in blood (9.846 h, 100 ppm, male): 216 ng/mL | concentration in blood (9.847 h, 100 ppm, male): 65.9 ng/mL | concentration in blood (9.954 h, 2500 ppm, female): 2870 ng/mL | concentration in blood (9.966 h, 100 ppm, female): 8.27 ng/mL | concentration in blood (17.93 h, 500 ppm, female): 61.8 ng/mL | concentration in blood (17.94 h, 100 ppm, male): 13.6 ng/mL | concentration in blood (17.98 h, 2500 ppm, female): 412 ng/mL | concentration in blood (18.11 h, 100 ppm, female): 19 ng/mL | concentration in blood (-149 s, 100 ppm, female, during exposure): 4180 ng/mL | concentration in blood (-181 s, 100 ppm, female, during exposure): 3160 ng/mL | concentration in blood (-201 s, 500 ppm, female, during exposure): 26500 ng/mL | concentration in blood (-217 s, 100 ppm, female, during exposure): 3880 ng/mL | concentration in blood (-0.1054 h, 500 ppm, female, during exposure): 19800 ng/mL | concentration in blood (-0.1058 h, 500 ppm, female, during exposure): 20000 ng/mL | concentration in blood (-0.1128 h, 500 ppm, female, during exposure): 24000 ng/mL | concentration in blood (-1.969 h, 2500 ppm, female, during exposure): 41600 ng/mL | concentration in blood (-1.97 h, 2500 ppm, female, during exposure): 45400 ng/mL | concentration in blood (-1.971 h, 2500 ppm, female, during exposure): 48600 ng/mL and 47900 ng/mL | concentration in blood (-1.973 h, 2500 ppm, female, during exposure): 53800 ng/mL | concentration in blood (-1.995 h, 100 ppm, female, during exposure): 1550 ng/mL | concentration in blood (-2.019 h, 100 ppm, female, during exposure): 3270 ng/mL | concentration in blood (-2.068 h, 500 ppm, female, during exposure): 17900 ng/mL | concentration in blood (-2.077 h, 500 ppm, female, during exposure): 22900 ng/mL | concentration in blood (-3.809 h, 2500 ppm, female, during exposure): 21700 ng/mL | concentration in blood (-3.81 h, 2500 ppm, female, during exposure): 22700 ng/mL | concentration in blood (-3.812 h, 2500 ppm, female, during exposure): 28800 ng/mL | concentration in blood (-3.813 h, 2500 ppm, female, during exposure): 31300 ng/mL | concentration in blood (-3.842 h, 2500 ppm, female, during exposure): 24200 ng/mL | concentration in blood (-3.994 h, 100 ppm, female, during exposure): 2170 ng/mL | concentration in blood (-3.997 h, 100 ppm, female, during exposure): 2380 ng/mL | concentration in blood (-4.018 h, 500 ppm, female, during exposure): 8470 ng/mL | concentration in blood (-4.021 h, 500 ppm, female, during exposure): 10300 ng/mL | concentration in blood (-4.022 h, 500 ppm, female, during exposure): 10500 ng/mL | concentration in blood (-4.921 h, 2500 ppm, female, during exposure): 12800 ng/mL and 11600 ng/mL | concentration in blood (-4.922 h, 2500 ppm, female, during exposure): 14300 ng/mL | concentration in blood (-4.935 h, 500 ppm, female, during exposure): 5870 ng/mL | concentration in blood (-5.054 h, 100 ppm, female, during exposure): 1130 ng/mL | concentration in blood (-5.056 h, 100 ppm, female, during exposure): 1240 ng/mL | concentration in blood (-5.057 h, 100 ppm, female, during exposure): 1340 ng/mL | concentration in blood (-5.076 h, 100 ppm, female, during exposure): 1030 ng/mL | concentration in blood (-5.48 h, 500 ppm, female, during exposure): 1550 ng/mL | concentration in blood (-5.482 h, 500 ppm, female, during exposure): 2600 ng/mL | concentration in blood (-5.483 h, 500 ppm, female, during exposure): 2840 ng/mL | concentration in blood (-5.587 h, 2500 ppm, female, during exposure): 3360 ng/mL | concentration in blood (-5.6 h, 100 ppm, female, during exposure): 871 ng/mL | concentration in blood (-5.642 h, 100 ppm, female, during exposure): 631 ng/mL | concentration in blood (-5.643 h, 100 ppm, female, during exposure): 657 ng/mL | concentration in blood (-5.753 h, 100 ppm, female, during exposure): 397 ng/mL and 371 ng/mL | concentration in blood (-5.786 h, 500 ppm, female, during exposure): 371 ng/mL | concentration in blood (-5.818 h, 500 ppm, female, during exposure): 1360 ng/mL | concentration in blood (-5.873 h, 2500 ppm, female, during exposure): 1680 ng/mL | concentration in blood (-5.932 h, 100 ppm, female, during exposure): 65 ng/mL | concentration in blood (-5.934 h, 100 ppm, female, during exposure): 260 ng/mL | concentration in blood (-5.935 h, 100 ppm, female, during exposure): 286 ng/mL
